# Among all 310,000 compounds or so, about 14,000 (4.5%) showed an effect of 50% or more. The effect is printed as a negative number. This is one part of the list.
# Target: human ether-à-go-go-related gene (hERG) potassium channel (human, UniProt Q12809)
# Test: primary screen, population patch clamp on CHO cells stably expressing hERG
# 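Note: peak tail current of the secondary pulse compared with the same well before compound.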
# Chain of human ether-à-go-go-related gene (hERG) potassium channel (Q12809 whole entry, looked up): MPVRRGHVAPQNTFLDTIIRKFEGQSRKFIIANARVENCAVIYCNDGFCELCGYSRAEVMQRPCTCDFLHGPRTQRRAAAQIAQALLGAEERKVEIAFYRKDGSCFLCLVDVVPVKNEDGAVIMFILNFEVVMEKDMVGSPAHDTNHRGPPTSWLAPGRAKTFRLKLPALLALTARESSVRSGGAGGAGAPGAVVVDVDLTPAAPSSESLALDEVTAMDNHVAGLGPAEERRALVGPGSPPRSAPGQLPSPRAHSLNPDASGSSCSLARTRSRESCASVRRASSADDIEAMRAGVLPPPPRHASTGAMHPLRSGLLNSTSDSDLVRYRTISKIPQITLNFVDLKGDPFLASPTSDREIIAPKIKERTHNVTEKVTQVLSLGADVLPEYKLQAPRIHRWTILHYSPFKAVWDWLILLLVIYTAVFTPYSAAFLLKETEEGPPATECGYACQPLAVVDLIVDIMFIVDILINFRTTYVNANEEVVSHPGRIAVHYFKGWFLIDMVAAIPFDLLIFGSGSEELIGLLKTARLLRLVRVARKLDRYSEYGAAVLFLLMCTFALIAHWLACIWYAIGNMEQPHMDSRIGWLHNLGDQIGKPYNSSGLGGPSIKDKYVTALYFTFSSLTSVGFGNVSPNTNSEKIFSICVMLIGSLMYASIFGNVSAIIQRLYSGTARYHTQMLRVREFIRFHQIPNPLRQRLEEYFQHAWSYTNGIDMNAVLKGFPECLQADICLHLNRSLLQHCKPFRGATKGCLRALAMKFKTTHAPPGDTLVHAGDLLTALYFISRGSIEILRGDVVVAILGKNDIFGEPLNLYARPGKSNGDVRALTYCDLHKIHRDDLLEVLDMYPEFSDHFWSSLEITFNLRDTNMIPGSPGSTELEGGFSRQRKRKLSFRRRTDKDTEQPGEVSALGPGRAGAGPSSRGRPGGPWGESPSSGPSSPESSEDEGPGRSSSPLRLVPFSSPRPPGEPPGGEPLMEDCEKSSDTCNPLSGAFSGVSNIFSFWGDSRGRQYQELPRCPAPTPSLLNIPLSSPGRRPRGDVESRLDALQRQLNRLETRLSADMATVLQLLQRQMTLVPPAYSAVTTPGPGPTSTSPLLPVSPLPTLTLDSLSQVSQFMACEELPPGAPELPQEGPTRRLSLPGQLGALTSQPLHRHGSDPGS
row,Compound,"hERG current change (%, negative = inhibition) at 10uM [%]"
1,CCCC(=O)n1nc(-c2cccnc2)nc1N,-27.1
2,CCCNc1cc(C)oc(=O)c1C(=O)CCC,-6.08
3,COc1ccc(OCC(O)CN2C(=O)NC(C)(C)C2=O)cc1 (centres unmarked),18.5
4,O=c1[nH]c(SCc2ccccc2F)nc2ccccc12,14.1
5,O=C1c2ccccc2C(=O)N1Cc1cc(Cl)c(O)c([N+](=O)[O-])c1,-15.7
6,COc1cc(OC)c(OC)cc1CN1CCN(S(=O)(=O)c2ccc(F)cc2)CC1.O=C(O)C(=O)O,-7.69
7,COc1cc(S(=O)(=O)Nc2ccccc2N2CCCCC2)ccc1NC(C)=O,-28.8
8,O=C(NOCc1ccccc1)c1ccccc1,15.9
9,Cc1cc2cc(CNC(=O)c3ccco3)ccc2n1C,-8.72
10,CC(=O)Nc1ccc(NC(=O)COc2ccc(Br)cc2C)cc1,13
11,Cc1[nH]c2ccccc2c1C(=O)COC(=O)C1CCC(=O)N1 (centres unmarked),6.72
12,COc1ccc(CN(C)CC(=O)Nc2cc3oc4ccccc4c3cc2OC)c(OC)c1,-4.91
13,C[C@@H](C(=O)N[C@@H](Cc1c[nH]c2ccccc12)C(=O)O)n1nnc2ccccc2c1=O,41.7
14,N=C(N)c1ccccc1,-17.9
15,CCc1nnc(NC(=O)CSc2nnc(COc3ccccc3)n2-c2ccc(C)cc2)s1,-26.5
16,C=C(C=O)CC1CC(O)[C@]2(C)OC3CC4OC5C[C@]6(C)O[C@]7(C)CCC8OC9C[C@]%10(C)OC%11C(C)=CC(=O)OC%11CC%10OC9C[C@@H](C)C8OC7CC6O[C@]5(C)CC5OC5C4OC3CC2O1 (some centres unmarked),-28.1
17,CNC(=O)CSc1nnc(-c2ccco2)n1-c1ccccc1,1.5
18,CCOC(=O)C(C)Oc1ncnc2cccc(F)c12 (centres unmarked),10.5
19,COC(=O)C1=C(C)N(Cc2ccccc2)C(=NCc2cccc(C(F)(F)F)c2)N[C@H]1c1cccc(F)c1,1.99

row,Compound,"hERG current change (%, negative = inhibition) at 10uM [%]"
1,Br.CC[C@H]1CN2CCC1C[C@H]2[C@H](O)c1ccnc2ccc(OC)cc12.O (some centres unmarked),-40.7
2,Cc1ccccc1OC1CCN(C(=O)C2CCC(=O)N(C3CCCC3)C2)CC1 (centres unmarked),3.16
3,CN(C1CCCCC1)S(=O)(=O)Cc1ccccc1,-6.28
4,Cc1cc(OCC(=O)Nc2nnc(C3CC3)s2)ccc1[N+](=O)[O-],22.2
5,CCCn1nc2cc(C(=O)N(CC)c3ccc(OC)cc3)ccc2c1OCC,17.6
6,CSc1nnc(-c2sc3cc(C(F)(F)F)cnc3c2-c2ccccc2)n1C,-18.8
7,COc1ccccc1N1CCN(Cc2cccc(Br)c2)CC1.O=C(O)C(=O)O,-5.27
8,Cc1cnc(NC(=O)c2c(-c3ccccc3)noc2C)s1,-2.27
9,N#Cc1ccccc1NC(=O)CN(Cc1ccccc1)Cc1ccccc1,16.4
10,CC1CCCCC1NC(=O)C1CCN(C(=O)NC2CCCCC2)CC1 (centres unmarked),5.72
11,CC(=O)C1=NN(c2ccccc2)C(c2cccs2)N1c1ccccc1 (centres unmarked),0.239
12,COc1ccc(NC(=S)N2CCC(C(=O)c3ccc(C)cc3)CC2)cc1,-21.9
13,O=C(/C=C/c1ccco1)OCC(=O)c1cccc([N+](=O)[O-])c1,14
14,Cl.N=c1c2c(n(Cc3ccc(Cl)c(Cl)c3)c3c1CCC3)CCCC2,-15.8
15,COc1ccc2[nH]cc(C(=O)CN3CCCC(C)C3)c2c1 (centres unmarked),-13
16,CCCn1c(=O)c(C(=O)NNC(=O)Cc2ccccc2)c(O)c2ccccc21,-9.14
17,CSCCC(NC(=O)c1ccccc1Br)C(=O)NCc1ccc(F)cc1 (centres unmarked),-9.59
18,CC(O)CN(CCC(N)=O)CCC(N)=O.O=C(O)C(=O)O (centres unmarked),21.4
19,Cc1cc(C)cc(NC(=O)CSc2nnc(CN3CCOCC3)n2C)c1,-13

row,Compound,"hERG current change (%, negative = inhibition) at 10uM [%]"
1,COc1ccc(C(=O)NCCc2nnc3ccc(SCC(=O)NCc4ccccc4)nn23)cc1,9.91
2,CCN(CC)C(=O)CSc1nnc(-c2ccco2)n1N,-0.873
3,Cc1cc(S(=O)(=O)Nc2c(C)nc3nc[nH]n3c2=O)ccc1F,12
4,O=C(CNC(=O)c1ccccc1)N/N=C/c1ccc([N+](=O)[O-])o1,-17.3
5,COc1ccccc1N1CCN(Cc2ccc(Br)s2)CC1,-35.9
6,Cc1ccc(OC(=O)c2ccccc2P(=O)(O)O)cc1,3.41
7,COc1ccc2o/c(=N/NC(=O)c3cccs3)c(C(N)=O)cc2c1,2.16
8,CCOc1ccc(N2C(=O)NC(=O)/C(=C\c3ccccc3[N+](=O)[O-])C2=O)cc1,5.02
9,Cc1ccc2[nH]c(CN3CCC(CO)(CC4CCCCO4)CC3)c(C)c2c1 (centres unmarked),-43.7
10,Cc1ccn2c(CNCCn3nc(C)cc3C)c(C(=O)N3CCCCCC3)nc2c1,-1.24
11,Cc1ccc(NC(=O)CSCC(=O)NNC(=O)c2nn(C)c(=O)c3ccccc23)cc1,-41.6
12,Cc1cc2cc(CNC(=O)c3ccc(S(=O)(=O)N4CCCCC4)cc3)ccc2[nH]1,-5.25
13,Cc1cccc(CCNS(=O)(=O)c2ccc3c(c2)oc(=O)n3C)c1,-18.9
14,COc1ccc(C(C)(C)C)cc1NC(=O)CCc1c(C)noc1C,-9.96
15,COc1ccc(NC(=S)Nc2ccccc2OC)c(OC)c1,15.6
16,CC1(C)CC(=O)C2=C(C1)N(c1ccccc1)C(=O)CC2c1ccsc1 (centres unmarked),-14.4
17,CCn1cc(SCC(=O)NCC2CCCO2)c2ccccc21 (centres unmarked),15.7
18,CNC(=S)N1N=C(c2ccccc2)CC1c1ccc(OC)c(OC)c1 (centres unmarked),-15.7
